Results taken from the antibiotic and cytotoxicity screens of Wong et al. (2023).
This is one part of the list.

Key:
[1] = system: HSkMC (human skeletal muscle cells); test: cytotoxicity call (relative viability < 0.9); conditions: 10 µM
[2] = system: HepG2; test: cytotoxicity call (relative viability < 0.9); conditions: 10 µM
[3] = system: S. aureus RN4220; test: growth inhibition call (relative growth <= 0.2); conditions: 50 µM

CO[C@@H](C(=O)N(C)C[C@H]1OCc2ccccc2-c2c(n(C)c3ccccc23)C(=O)N([C@H](C)CO)C[C@H]1C)c1ccccc1
inactive: cytotoxicity call [1] | cytotoxicity call [2] | growth inhibition call [3]

COc1cccc(NC(=O)N(C)C[C@@H]2Oc3cc(C#CC4(O)CCCC4)ccc3S(=O)(=O)N([C@H](C)CO)C[C@@H]2C)c1
inactive: cytotoxicity call [1] | cytotoxicity call [2] | growth inhibition call [3]

C[C@@H]1CCCCO[C@@H](CN(C)Cc2ccc(C(=O)O)cc2)[C@H](C)CN([C@H](C)CO)C(=O)c2cc(NC(=O)Cc3ccccc3)ccc2O1
inactive: cytotoxicity call [1] | cytotoxicity call [2] | growth inhibition call [3]

CN1CCN(C(=O)C[C@@H]2CC[C@@H]3[C@H](COC[C@H](O)CN3C(=O)C3CCOCC3)O2)CC1
inactive: cytotoxicity call [1] | cytotoxicity call [2] | growth inhibition call [3]

C[C@@H]1CN([C@H](C)CO)C(=O)Cc2cc(NC(=O)Cn3cnnn3)ccc2O[C@H]1CN(C)Cc1ccncc1
inactive: cytotoxicity call [1] | cytotoxicity call [2] | growth inhibition call [3]

Cc1ccc(-c2ccc3c(c2)O[C@@H](CN(C)C(=O)CN(C)C)[C@H](C)CN([C@@H](C)CO)S3(=O)=O)cc1
inactive: cytotoxicity call [1] | cytotoxicity call [2] | growth inhibition call [3]

CC(C)NC(=O)Nc1ccc2c(c1)C(=O)N([C@H](C)CO)C[C@@H](C)[C@@H](CN(C)Cc1ccc(Cl)c(Cl)c1)OCCCC[C@H](C)O2
inactive: cytotoxicity call [1] | cytotoxicity call [2] | growth inhibition call [3]
